This is one part of the list.

For the experiment, the target named is T1, OsWOX13 (Oryza sativa, UniProt Q5QMM3 1-267).
T1 sequence: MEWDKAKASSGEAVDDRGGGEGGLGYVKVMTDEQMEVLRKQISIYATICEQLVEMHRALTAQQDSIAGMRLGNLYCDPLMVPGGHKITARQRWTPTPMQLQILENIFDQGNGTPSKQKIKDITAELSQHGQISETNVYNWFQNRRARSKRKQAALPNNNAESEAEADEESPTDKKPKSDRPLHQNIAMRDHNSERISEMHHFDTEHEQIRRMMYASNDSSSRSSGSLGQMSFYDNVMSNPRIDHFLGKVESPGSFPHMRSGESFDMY
The experiment is described as follows: protein-binding microarray (RPBM); PBS, 2% BSA, 51.3 ng/ul salmon testes DNA, 50 uM zinc acetate, 200 nM TF, 25 C, 1 h; high values mean tight binding. The settings on record: protein: recombinant; tags: N-terminal polyhistidine and DsRed monomer fusion (pET32a); label: CyDye5-dUTP incorporated in the synthesized complementary strand; 3' TTTTT single-stranded linker to array surface; dsDNA, one strand shown. The procedure, abridged: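 An Axon 4000B scanner gave the binding signal as per-feature fluorescence intensity in arbitrary units. This followed washing of a custom Agilent array that had been incubated for 1 h at 25 °C with 200 nM protein in PBS, 2% BSA, salmon testes DNA and 50 µM zinc acetate. The proteins were transcription factors fused at the N-terminus to polyhistidine and DsRed, expressed in E. coli BL21-CodonPlus and purified on Ni–NTA.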
Turning to “TCTCCTACTTGATTGGAAAATGTTCTTGATGAGAAATTAACGGAGTCACCTAGTGCAG”, the binding signal was 22400 fluorescence intensity (a.u.). As to “AATTCAAATTAAGTAGAAATTAAAATTAAATTCCAAGAGCCGGAGTCACCTAGTGCAG”, the binding signal was 18300 fluorescence intensity (a.u.). Regarding “TGTGATAAATTTGGTGTTAAATGTGTAGTTTTGTGATACACGGAGTCACCTAGTGCAG”, the binding signal was 16000 fluorescence intensity (a.u.). Consider “CATGGGAGAGGGGTGTAGAATAGTTATTCTAGGGGAGGGGCGGAGTCACCTAGTGCAG”, for which the binding signal is 3560 fluorescence intensity (a.u.). With “TAATTGATGGTATGGATTTAGTCAAATCCACCTGGTGGAGCGGAGTCACCTAGTGCAG”, the binding signal is 3280 fluorescence intensity (a.u.).

In the case of “TAATAGTTAGATAGATAGATAGATGCGAGATGGTCCATCGCGGAGTCACCTAGTGCAG”, the binding signal was 11600 fluorescence intensity (a.u.).

For “AGTCTTTAATTATATCAAGAACTAAGTGTGGCTCGTTTTCCGGAGTCACCTAGTGCAG”, the binding signal was 8720 fluorescence intensity (a.u.).

For “CCACACAGTCAATTAGGCCCATTTGGCCCGAGACCAGTTCCGGAGTCACCTAGTGCAG”, the binding signal was 8510 fluorescence intensity (a.u.). For “TTTACAATTATATCACACAATCAAGTGAGTTGTATTGGATCGGAGTCACCTAGTGCAG”, the binding signal is 8390 fluorescence intensity (a.u.). Turning to “TATATATATATATATATATGGGTGGTGTTCTTTTCTCTGGCGGAGTCACCTAGTGCAG”, the binding signal is 17400 fluorescence intensity (a.u.). As to “ATTTAACGTCATTTATAAACATATACTAGATACTAGTAATCGGAGTCACCTAGTGCAG”, the binding signal was 3890 fluorescence intensity (a.u.). Regarding “CGGCAAACTTTTGTCAATTAATATTAATACTGGACTACATCGGAGTCACCTAGTGCAG”, the binding signal is 4670 fluorescence intensity (a.u.).

For the sequence “CATGACGTAATTTTACATCCGTATCTGACGGTTGGTTTCACGGAGTCACCTAGTGCAG”, the binding signal is 12900 fluorescence intensity (a.u.). On to “GAATAAATGGATATATTGTGTGTCGCTGTTGTATACAGTGCGGAGTCACCTAGTGCAG”, for which the binding signal was 10100 fluorescence intensity (a.u.).

In the case of “TATGAATGTAATTTCATGTATGTCTAAGTAATGAAAATGTCGGAGTCACCTAGTGCAG”, the binding signal is 3140 fluorescence intensity (a.u.). As to “ATCGTATCATTGATTTTCACTTAATATGGTGGACCCATCACGGAGTCACCTAGTGCAG”, the binding signal was 12700 fluorescence intensity (a.u.).

In the case of “CGTTAATTGCTATGTCACAAGAGTGGCAAATAGTTAAATTCGGAGTCACCTAGTGCAG”, the binding signal was 17900 fluorescence intensity (a.u.).

Regarding “GCTTTAATGGCAATCAAATCTGTTCATCCAAGGAGATTATCGGAGTCACCTAGTGCAG”, the binding signal was 15900 fluorescence intensity (a.u.).

In the case of “TTGCTAAATTAACTTATAGCAGGACCTAGTAATGAAAGATCGGAGTCACCTAGTGCAG”, the binding signal is 5780 fluorescence intensity (a.u.). Turning to “TCTAATTTTAGCTTTTGATTTGGTTTATTATGTCAACTGACGGAGTCACCTAGTGCAG”, the binding signal was 3660 fluorescence intensity (a.u.). The result for “ATTAATTATTACTACTAGTACTACCTAGTAGCTAGTATACCGGAGTCACCTAGTGCAG” reads 17000 fluorescence intensity (a.u.).

“TACTATAATTTGACCTCACGCCCTTGAGTTCATTGAGGATCGGAGTCACCTAGTGCAG”: the binding signal was 5680 fluorescence intensity (a.u.).

For the sequence “GCCATGCTGATTGCAATTTGGGGATTTATTTCGTATCTGTCGGAGTCACCTAGTGCAG”, the binding signal was 36800 fluorescence intensity (a.u.).

On to “GCGGATAATTAAGACAAGCAGACATGGTCACAAGAAGAAGCGGAGTCACCTAGTGCAG”, for which the binding signal was 5640 fluorescence intensity (a.u.).

Regarding “TTGGAGATGATTGATTGGAAATCTTCTTCCAGTCTCCTCTCGGAGTCACCTAGTGCAG”, the binding signal is 61700 fluorescence intensity (a.u.). Consider “TTTAAGCCTAATTGCGTCATGATTTGACAATGTGATACTACGGAGTCACCTAGTGCAG”, for which the binding signal is 17800 fluorescence intensity (a.u.). The result for “CGAGGGGCTGATCAGCTTCTGCCGGCAGCCGACGTTCGTGCGGAGTCACCTAGTGCAG” reads 6720 fluorescence intensity (a.u.); that for “GGTGCGACGGCTTGGTTGATTGGGTGACGGGTGGGATTTGCGGAGTCACCTAGTGCAG”, 13700 fluorescence intensity (a.u.); that for “CAGCATCACTAATTTGTCTGAATTCTATATTCCATGCTCGCGGAGTCACCTAGTGCAG”, 3950 fluorescence intensity (a.u.).

Consider “AGTAAATAAACTGTTGGAATGGATAAACCGGAGCTACGAGCGGAGTCACCTAGTGCAG”, for which the binding signal is 7810 fluorescence intensity (a.u.). For “GTGATAATTGCAAAATTAGGAATTATGCAAGGGGTGTAGACGGAGTCACCTAGTGCAG”, the binding signal was 49400 fluorescence intensity (a.u.).

“TATGATGGAAATCCATATATCCCAGATGGGTGTAAAGGTACGGAGTCACCTAGTGCAG”: the binding signal is 5680 fluorescence intensity (a.u.). Consider “ATGCACGGTGATCTAATTAAGCTACTTCTGCTTAACTGCACGGAGTCACCTAGTGCAG”, for which the binding signal is 3560 fluorescence intensity (a.u.). “TTATCAATGACGAGTAAATTTTGGCGGTCATTTCTTAATCCGGAGTCACCTAGTGCAG”: the binding signal was 13600 fluorescence intensity (a.u.). Turning to “GGTCTTTGATTGATGAACCAGCAGTGGCGCCAATCCATCCCGGAGTCACCTAGTGCAG”, the binding signal was 40100 fluorescence intensity (a.u.). “CCGCTAATTAATCCGCTGTGCGTTGGACTTGAGTTTAGCGCGGAGTCACCTAGTGCAG”: the binding signal was 25100 fluorescence intensity (a.u.). The figure for “TCTAATTTAGAATTATTGGTTTAAATTGAACTCCTCTGTCCGGAGTCACCTAGTGCAG” is 46200 fluorescence intensity (a.u.); for “TCTAATAATTTAGAGAGGGTTTAGATTAGGGGTGTAAAGTCGGAGTCACCTAGTGCAG” it is 6140 fluorescence intensity (a.u.).

As to “CCTCTCTGTTCTTAATTAGCTAGTTACCTCCAAATCAATCCGGAGTCACCTAGTGCAG”, the binding signal is 8440 fluorescence intensity (a.u.). As to “CTCAAATTACCAAAACGCCCCTCCTCCCTCCACTACTACCCGGAGTCACCTAGTGCAG”, the binding signal was 10800 fluorescence intensity (a.u.). The figure for “TTCAAAACGTTAATTAATATGAAACCGGAGGGAGTAGGTACGGAGTCACCTAGTGCAG” is 9620 fluorescence intensity (a.u.); for “CAATCAATCAGGCAGTGTGTTTAGGCAAAGTAATCACTCCCGGAGTCACCTAGTGCAG” it is 16100 fluorescence intensity (a.u.). Consider “ATTTAATTGATCTACGACTATAAAATTGAGTTAAACATATCGGAGTCACCTAGTGCAG”, for which the binding signal is 41900 fluorescence intensity (a.u.). The result for “ATAACTAATATAATCGAACCTGCCTCACTTAATATGTGGCCGGAGTCACCTAGTGCAG” reads 4830 fluorescence intensity (a.u.); that for “GGAGATTGAAGCCGTCGTCACCGGCCGGCGCGGCGCTTGCCGGAGTCACCTAGTGCAG”, 9270 fluorescence intensity (a.u.); that for “TTTGATGATTTAACACTCCTTAAGGTCCCGTCGTTTGGCTCGGAGTCACCTAGTGCAG”, 31500 fluorescence intensity (a.u.). With “GTTTCAGATTGGAGATCTCTGTCTGTCTATCTGTTAATATCGGAGTCACCTAGTGCAG”, the binding signal is 4320 fluorescence intensity (a.u.). As for “CACTTGACAGATAAATGCATGCACATTGAGTGCCAGCTCGCGGAGTCACCTAGTGCAG”, the binding signal was 33400 fluorescence intensity (a.u.). Consider “TTTCTTGATTAGGGTTTGAATTCATATTACTAACTTTCCTCGGAGTCACCTAGTGCAG”, for which the binding signal is 38300 fluorescence intensity (a.u.). “GTAAAATTTTCTGTCTCCAACTCGAGATGGGCATTCAGCCCGGAGTCACCTAGTGCAG”: the binding signal was 5360 fluorescence intensity (a.u.). For “GTTGATTGTCCTGCTTCTTTTCTGTATTGAGATTCTTGTACGGAGTCACCTAGTGCAG”, the binding signal is 33600 fluorescence intensity (a.u.). The result for “TAAAATTAGAAGTTTAAAGAGATTGAAACGATGTGAGAAACGGAGTCACCTAGTGCAG” reads 6510 fluorescence intensity (a.u.); that for “TCTTCTTCTTGTTGTTCTTGTTCTTTCTTCTTCCCCTTTTCGGAGTCACCTAGTGCAG”, 4300 fluorescence intensity (a.u.); that for “AATAATTTAAATAAAATTAGATGTTATCGCTATCCCTATTCGGAGTCACCTAGTGCAG”, 11800 fluorescence intensity (a.u.).

The values above are taken from paper PMC7819943, “Rice protein-binding microarrays: a tool to detect cis-acting elements near promoter regions in rice”.
